Measurements from PubChem BioAssay AID360 (National Center for Advancing Translational Sciences (NCATS), 2006).
Hit rate of the full screen: of about 48,000 compounds, about 550 (1.1%) were called active. Inconclusive means that the source gave no clear call. Such entries were picked first, then a sample of the others. No stated cut-off is given here; in the data, active means potency below about 15 µM; inconclusive means mostly about 16 µM to 33 µM; inactive means weaker than that. Potencies beside an inconclusive call are fits to weak or partial responses and may not hold up.

target: Lysosomal acid glucosylceramidase (Homo sapiens) (UniProt P04062); assay: Glucocerebrosidase; details: purified enzyme, resorufin glucoside fluorescence (screen aimed at inhibitors), 20 min;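 further: the screen sought inhibitors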
UniProt P04062, sequence (P04062 whole entry, looked up): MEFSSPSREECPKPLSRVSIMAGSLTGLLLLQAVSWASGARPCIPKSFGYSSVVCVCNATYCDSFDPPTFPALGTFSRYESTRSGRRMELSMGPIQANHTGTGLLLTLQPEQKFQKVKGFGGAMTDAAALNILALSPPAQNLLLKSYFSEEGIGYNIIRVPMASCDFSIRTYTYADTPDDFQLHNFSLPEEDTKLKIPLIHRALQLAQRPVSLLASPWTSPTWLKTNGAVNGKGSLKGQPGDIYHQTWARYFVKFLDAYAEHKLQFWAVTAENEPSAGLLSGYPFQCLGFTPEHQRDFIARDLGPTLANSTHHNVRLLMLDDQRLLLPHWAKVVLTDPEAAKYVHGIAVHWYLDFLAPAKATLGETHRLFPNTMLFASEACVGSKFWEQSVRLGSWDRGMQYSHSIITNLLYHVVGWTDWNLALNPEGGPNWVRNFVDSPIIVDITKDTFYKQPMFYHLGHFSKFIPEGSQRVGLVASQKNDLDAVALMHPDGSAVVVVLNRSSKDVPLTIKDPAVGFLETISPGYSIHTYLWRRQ
In short: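 Compounds titrated against 0.2 nM normal enzyme, 30 uM resorufin beta-D-glucopyranoside substrate, citrate/phosphate buffer with taurocholate and tween-20, pH 5.9. Reaction ran 20 min at room temperature; fluorescence (Ex 548/Em 600) gave AC50.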
Potency means the concentration at half of the fitted maximal effect.

Potency, active:
Cc1noc(C)c1C(=O)OCC(=O)c1c[nH]c2ccccc12 8.3 µM
Cc1[nH]n2c(=O)c3c(nc2c1-c1ccccc1)CCCC3 4.19 µM
Cc1cc(N=Cc2c(O)n(-c3ccc4c(c3)OCO4)c(=O)c3ccccc23)ccn1 10.9 µM
COc1cc(-c2cc(C(=O)N3CCN(c4ccccn4)CC3)c3ccccc3n2)cc(OC)c1OC 14.6 µM

Potency, inactive:
Cc1cc2c(=O)n(Cc3ccco3)c(SCC(=O)N3CCCc4ccccc43)nc2s1 > 76.9 µM
Cc1ccc(NC(=O)COC(=O)c2ccn(C)n2)cc1 > 76.9 µM
COc1ccccc1NC(=O)c1ccccc1SC > 76.9 µM
CCCN1Cc2cccc(C(=O)Nc3ccc(OC)c(OC)c3)c2C1=O > 76.9 µM
CCCc1cc(=O)[nH]c(SCC(=O)N2CCN(c3ccccc3)CC2)n1 > 76.9 µM
O=C(c1ccc(Cn2cc(Cl)cn2)o1)N1CCN(Cc2ccc3c(c2)OCO3)CC1 > 76.9 µM
Cc1cc(NS(=O)(=O)c2ccc(NC(=O)CN3C(=O)c4ccccc4C3=O)cc2)nc(C)n1 > 76.9 µM
CS(=O)(=O)N1CCCC(C(=O)NCCc2ccc(Cl)cc2)C1 (stereo unspecified) > 76.9 µM
CCOc1ccccc1NC(=O)Cn1nnc(-c2ccc(OCC)c(OCC)c2)n1 > 76.9 µM
CS(=O)(=O)N1CCN(c2ccccc2NC(=O)c2cccs2)CC1 > 76.9 µM
CC(=O)Nc1cc2c(cc1C(=O)c1ccc(C)cc1)OCCO2 > 76.9 µM
CCOC(=O)N1CCN(c2cc(NCCC(=O)O)c3c4c(onc24)-c2ccccc2C3=O)CC1 > 76.9 µM
CCOc1ccc2c(O)csc2c1 > 76.9 µM
Cc1ccc(C)c(NS(=O)(=O)c2ccc(OCC(=O)N3CCOCC3)cc2)c1 > 76.9 µM
CN(C)CCSc1nnc(-c2ccccc2)o1 > 76.9 µM
O=C1c2ccccc2C(=O)N1CCCOCc1c[nH]c(=O)[nH]c1=O > 76.9 µM
CCc1c(C)c2ccc(OCC(=O)OC)cc2oc1=O > 76.9 µM
COC(=O)C1=C(C)NC2=C(C(=O)CC(C)(C)C2)C1c1cccc(C)n1 (stereo unspecified) > 76.9 µM
CC1=C(C(=O)NCc2ccccc2)C(c2cccs2)n2ncnc2N1 (stereo unspecified) > 76.9 µM
O=C(NC1CCCCC1)C1CCN(c2cnccn2)CC1 > 76.9 µM
CCCc1nnc2n1N=C(c1ccc(-c3cc(Cl)ccc3Cl)o1)CS2 > 76.9 µM
COc1ccc(-c2csc(NC(=O)C3CCCO3)n2)cc1 (stereo unspecified) > 76.9 µM
Cc1ccc(S(=O)(=O)Nc2nc3ccc(S(=O)(=O)N4CCCC4)cc3s2)cc1 > 76.9 µM
CCN(CC)S(=O)(=O)c1ccc(OCC(=O)NCc2ccccc2)cc1 > 76.9 µM
CCC(CC)C(=O)NCc1ccc2c(c1)cc(C)n2C > 76.9 µM
O=C(NC1CCCCC1)C1CCCN1S(=O)(=O)c1cccc2nsnc12 (stereo unspecified) > 76.9 µM

Potency, inconclusive:
c1ccc2c(c1)ncn2CCC1CCCCC1 21.9 µM [decreasing]
Cc1ccc(C)c(S(=O)(=O)N2CCN(CC(=O)NC(=O)NCc3ccccc3)CC2)c1 17.4 µM [decreasing]
Cc1cc(-c2cc(N)n(-c3ccccc3)n2)c(C)n1C1CCCC1 20.2 µM [decreasing]
O=C(NC1CCCCCCC1)c1ccc2c(c1)N(Cc1ccc(F)cc1)C(=O)CS2=O (stereo unspecified) 24.8 µM [decreasing]
O=C(Cn1c(C(=O)NCCCN2CCOCC2)cc2sccc21)c1ccccc1 17.2 µM [decreasing]
COc1ccc(OC)c(S(=O)(=O)N2C(C)CCCC2C)c1 (stereo unspecified) 20.2 µM [decreasing]
CCCCn1c2nc3ccccc3nc2c2c(=O)n(C(C)CC)cnc21 (stereo unspecified) 17.7 µM [increasing]
O=S(=O)(c1ccccc1Cl)N1CCC(O)(c2ccc3c(c2)OCO3)CC1 17.4 µM [decreasing]
O=C(NCCCN1CCCC1)C1CCN(C(=O)c2cc3sccc3n2Cc2ccc(F)cc2)CC1 17.9 µM [decreasing]
COc1nc(Nc2ccc(OC)c(Cl)c2)nc(OC)n1 18.2 µM [decreasing]
O=C(NC1CCCCC1)C(c1ccco1)N(Cc1cccnc1)C(=O)C1COc2ccccc2O1 (stereo unspecified) 18.3 µM [decreasing]
CCOC(=O)c1c(N)n(CCOC(=O)c2cccs2)c2nc3ccccc3nc12 25.3 µM [increasing]
Cc1cccc(N2CCN(C(=O)c3ccc(CS(=O)(=O)c4ccccc4C)o3)CC2C)c1 (stereo unspecified) 17 µM [decreasing]
COc1ccc(NC(=O)N2CCCC2C(=O)Nc2ccc(C)c(Cl)c2)cc1 (stereo unspecified) 25.2 µM [decreasing]
CC1(C)CC(=O)c2c(nc3ccccc3c2N)C1 17.8 µM [decreasing]
COc1ccc(S(=O)(=O)N2CN(Cc3ccco3)c3nc4ccccc4nc32)cc1 20.1 µM [decreasing]
COc1ccc(CNC(=O)c2ccc(NS(=O)(=O)c3c(C)noc3C)cc2)cc1 33.6 µM [decreasing]
O=S(=O)(c1ccc2c(c1)OCCCO2)N1CCNCC1 16.9 µM [decreasing]
O=C(NCc1ccc2c(c1)OCO2)c1ccc(NS(=O)(=O)c2ccc3c(c2)OCCO3)cc1 23.5 µM [decreasing]
Cc1cccn2c(=O)c3cc(C(=O)NC4CCCC4)c(=N)n(C4CCCC4)c3nc12 22 µM [decreasing]
CCOC(=O)C(C(=O)OCC)c1cc(Br)c2noc3c2c1C(=O)c1ccccc1-3 24.3 µM [increasing]
O=C(CCn1c(=O)[nH]c2ccccc2c1=O)N1CCN(c2cccc(C(F)(F)F)c2)CC1 29.1 µM [decreasing]
Cc1ccc(-n2c(Cc3cccn3C)nnc2SCC(=O)NCc2ccc3c(c2)OCO3)cc1 29.3 µM [decreasing]
CN(C)c1ccccc1C(=O)c1ccccc1N(C)C 21.9 µM [increasing]
Cc1cc(S(=O)(=O)NCCCN2CCOCC2)ccc1F 15.7 µM [decreasing]
COc1ccccc1OCCn1cc(C(=O)c2ccco2)c2ccccc21 18.5 µM [increasing]
O=S(=O)(Nc1ccc(S(=O)(=O)N2CCCCC2)cc1)c1ccc(Br)s1 22.9 µM [decreasing]
CCn1c(=O)n(CC(=O)NC2CCCC(C)C2C)c(=O)c2ccccc21 (stereo unspecified) 28.9 µM [decreasing]
O=C(COC(=O)CCc1ccc(S(=O)(=O)N2CCCCC2)cc1)Nc1ccc2c(c1)OCO2 19.2 µM [decreasing]
CC1CCN(S(=O)(=O)c2ccc3ncn(CC(=O)N(C)Cc4ccccc4)c(=O)c3c2)CC1 23.9 µM [decreasing]
CCOC(=O)c1ccc(NC(=O)N2CCN(Cc3cccc(F)c3)CC2)cc1 16.1 µM [increasing]
Cc1ccc(S(=O)(=O)N(C)Cc2ccc(-c3nnc4n3CCC4)cc2)cc1 18.7 µM [decreasing]
Nc1nonc1-c1nc2ccccc2n1Cc1ccc(F)cc1 21 µM [decreasing]
Cc1cc(Cl)ccc1OCCCC(=O)NC1CCN(C)CC1 17.8 µM [decreasing]
O=C(CSc1nnnn1C1CC2CCC1C2)Nc1ccnc2ccccc12 (stereo unspecified) 17.7 µM [decreasing]
COc1ccc(Cn2nnnc2C(c2cccnc2)N2CCN(c3ccc(O)cc3)CC2)cc1 (stereo unspecified) 17.3 µM [decreasing]
CCOC(=O)c1ccc(S(=O)(=O)NC2CCCCCCC2)n1C 16.7 µM [decreasing]
Cc1cc2oc(=O)cc(Cn3ccnc3)c2cc1C 32.7 µM [decreasing]
COc1ccc(-c2ccc(-c3nnc(-c4ccncc4)o3)cc2)cc1 22.2 µM [decreasing]
COc1ccc(S(=O)(=O)N2CCCC(C(=O)Nc3cccnc3)C2)cc1Cl (stereo unspecified) 21.4 µM [decreasing]
CC1CCC(NC(=O)c2cc3c(s2)CS(=O)(=O)C3)CC1 (stereo unspecified) 26.4 µM [decreasing]
O=C(NC1CCCCC1)c1cnn2c(C(F)(F)F)cc(-c3ccco3)nc12 22.6 µM [increasing]
CCOc1ccc2[nH]c(=O)c(CN(Cc3nnnn3Cc3ccccc3)CC3CCCO3)cc2c1 (stereo unspecified) 15.9 µM [decreasing]
Cc1ccc2cccc(NC(=O)c3ccc(Br)o3)c2n1 23.8 µM [increasing]
CCOC(=O)c1cc(C(=O)OCC)cc(-n2c(C)cc(C(=O)CN3CCOCC3)c2C)c1 18.7 µM [decreasing]
O=C(Nc1ccc(N2CCN(C(=O)c3ccc(Cl)cc3)CC2)cc1)c1ccc(Br)o1 16.9 µM [decreasing]
